According to the supplement of paper PMC10126150:
Sequences with one replicate were seen in a single cluster, so their values are uncertain.

System: ATP
Assay: switch fluorescence ratio, 500 uM ATP over buffer (Cy3 cluster intensity, sum of 5 cycles each) (fold (ratio)); higher = stronger signal-on switching upon ATP binding; sequences stand for … in TCGTCGGCAGCGTCAGATGTGTATAAGAGACAGTTTTTTTTTTTTTTTTTTTTTTTTT…TC
Conditions: aptamer strand: ATP DNA aptamer (quencher-CACCTGGGGGAGTATTGCGGAGGAAGG + anchor), 100 nM annealed; ATP concentration: 500 uM; one replicate
Procedure, shortened: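 Exposure to 500 uM ATP lasted 15 min at 22 °C before imaging, and a selection-buffer image was taken beforehand, for Cy3-labelled switching-strand clusters on a modified Illumina MiSeq flow-cell annealed to 100 nM quencher-labelled ATP aptamer. Five buffer/ATP cycles were run with NaOH stripping and re-annealing between them. The fluorescence ratio per cluster is summed target-cycle over summed buffer-cycle Cy3 intensity, averaged per switch-domain sequence. Clusters outside 100-1000 RFU were excluded.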

Sequence | switch fluorescence ratio
GATAGAAGTC | 0.985
TGGACTTGGC | 0.959
AATACATGAC | 1.19
TATATCCT | 1.15
ATCTGGAGTC | 1.01
GACATGCTAG | 1.02
AAGCACAGGC | 1.1
TTGGGCGGAC | 1.02
GATCTGTGCT | 0.969
TTATGAAACA | 1.07
ACCCATCGTT | 0.992
AAGACCTGTA | 1.11
CCACATCGGC | 1.06
GGATGCTGCT | 1.42
GAACAAATTG | 1
ACTGGGAAGA | 0.997
AGTTTTCAG | 1
CGGTCAGAGG | 1
AGGTAGCAT | 1.05
AGTAAGTCGT | 0.978
ATTTTTTGT | 0.972
AAGTAACCAC | 1.07
CGGGAATTGC | 1.12
CTCGCGTATC | 1.33
AGAGCGGT | 1.24
ATAATTGGAG | 0.992

Sequence | switch fluorescence ratio
AAAATGCTTG | 0.966
GTGTGACCCC | 0.962
GCACTGGCGA | 1.08
GGGTTCACAG | 0.96
CAAACTCTTT | 0.993
TTCAGGGGCC | 1.02
CGGTACTAAT | 1.03
GTCTCACGCC | 1.07
ACCCTGGGG | 1.03
CGCAACATTG | 1.14
CGGCGCATAG | 4.19
GATGTGGACG | 1
GATCCGCTGT | 2.9
ATAGGACTTC | 1
GTGTGGTGGG | 1.01
ACCTTGAGC | 1.06
ATCTATCTAC | 1.06
TTTATATTGA | 0.967
GGGCGGCTAG | 0.949
ATCGTACTCG | 1.04
CTGGGAGCTC | 1.02
GGACATCTAG | 1
GCATGTGGGG | 0.99
GGCACAGGAT | 0.968
CTGCTTAAGA | 0.993
CCCCCAGGA | 1.24

Sequence | switch fluorescence ratio
AGGTTAGCAC | 1
TCGCCACATA | 1.17
GCGCCTTGTT | 1.03
GCTCCCGCGC | 2.76
CTTAAATCGG | 1.04
GTAAGTTTGC | 1
CAGGGCCTAC | 0.969
TGTCGTCGGT | 1.01
TTCCTCTTAG | 1.11
ATCGATGGCT | 0.977
GGGGTACTTA | 0.998
CGACGGAGCG | 1.13
GCGTTTCTGC | 1.06
CTTTCCGATC | 1.2
ACAAAGCGGG | 1.02
ATTAATATTT | 1.01
GTGTGGTTCA | 0.972
TCCCCTGGAC | 1.1
AGGTAGTACC | 0.998
GACTACATAG | 1.01
TTCTGACGTC | 1.02
ATTCCCCAAG | 1.26
GCGCCACGCG | 0.978
CATAATGGGG | 0.947
TAGGTTACGT | 1.01
